Results from the supplement of paper PMC8728848.
The other results are listed elsewhere or left out.

Key:
Assay in all cases: glycan array binding signal (z-score within array); higher = stronger binding
Settings in all cases: glycan notation: IUPAC condensed, linker removed
[1] = target: Fuc(a1-2)Gal
How it was run: (§1)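 Columns mapping to the same glycan were averaged after glycan names were converted to IUPAC-condensed notation. The data come from 3228 arrays in the Consortium for Functional Glycomics database, limited to those with an available protein sequence. Binding is reported as a within-array Z-score averaged across arrays of one protein sequence and across linkers.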

[2] = target: Fuc(a1-2)Gal(b1-3)GalNAc
How it was run: as §1

[3] = target: Fuc(a1-2)Gal(b1-3)GalNAc(a1-3)[Fuc(a1-2)]Gal(b1-4)Glc
How it was run: as §1

[4] = target: Fuc(a1-2)Gal(b1-3)GalNAc(a1-3)[Fuc(a1-2)]Gal(b1-4)GlcNAc
How it was run: as §1

[5] = target: Fuc(a1-2)Gal(b1-3)GalNAc(b1-3)Gal
How it was run: as §1

[6] = target: Fuc(a1-2)Gal(b1-3)GalNAc(b1-3)Gal(a1-4)Gal(b1-4)Glc
How it was run: as §1

[7] = target: Fuc(a1-2)Gal(b1-3)GalNAc(b1-4)[Neu5Ac(a2-3)]Gal(b1-4)Glc
How it was run: as §1

[8] = target: Fuc(a1-2)Gal(b1-3)GlcNAc
How it was run: as §1

[9] = target: Fuc(a1-2)Gal(b1-3)GlcNAc(b1-2)Man(a1-3)[Fuc(a1-2)Gal(b1-3)GlcNAc(b1-2)Man(a1-6)]Man(b1-4)GlcNAc(b1-4)GlcNAc
How it was run: as §1

[10] = target: Fuc(a1-2)Gal(b1-3)GlcNAc(b1-2)Man(a1-3)[Fuc(a1-2)Gal(b1-3)GlcNAc(b1-2)Man(a1-6)]Man(b1-4)GlcNAc(b1-4)[Fuc(a1-6)]GlcNAc
How it was run: as §1

[11] = target: Fuc(a1-2)Gal(b1-3)GlcNAc(b1-3)Gal(b1-4)Glc
How it was run: as §1

[12] = target: Fuc(a1-2)Gal(b1-3)GlcNAc(b1-3)GalNAc
How it was run: as §1

[13] = target: Fuc(a1-2)Gal(b1-3)GlcNAc(b1-3)[Fuc(a1-2)Gal(b1-3)GlcNAc(b1-6)]GalNAc
How it was run: as §1

[14] = target: Fuc(a1-2)Gal(b1-3)GlcNAc(b1-3)[Gal(b1-4)GlcNAc(b1-6)]Gal(b1-4)Glc
How it was run: as §1

[15] = target: Fuc(a1-2)Gal(b1-3)GlcNAc(b1-3)[Neu5Ac(a2-6)Gal(b1-4)GlcNAc(b1-6)]Gal(b1-4)Glc
How it was run: as §1

[16] = target: Fuc(a1-2)Gal(b1-3)GlcNAc6S
How it was run: as §1

[17] = target: Fuc(a1-2)Gal(b1-3)[Fuc(a1-4)]GlcNAc
How it was run: as §1

[18] = target: Fuc(a1-2)Gal(b1-3)[Fuc(a1-4)]GlcNAc(b1-2)Man(a1-3)[Fuc(a1-2)Gal(b1-3)[Fuc(a1-4)]GlcNAc(b1-2)Man(a1-3)]Man(b1-4)GlcNAc(b1-4)GlcNAc
How it was run: as §1

[19] = target: Fuc(a1-2)Gal(b1-3)[Fuc(a1-4)]GlcNAc(b1-2)Man(a1-3)[Fuc(a1-2)Gal(b1-3)[Fuc(a1-4)]GlcNAc(b1-2)Man(a1-6)]Man(b1-4)GlcNAc(b1-4)[Fuc(a1-6)]GlcNAc(b1-4)[Fuc(a1-6)]GlcNAc
How it was run: as §1

[20] = target: Fuc(a1-2)Gal(b1-3)[Fuc(a1-4)]GlcNAc(b1-3)[Fuc(a1-3)[Gal(b1-4)]GlcNAc(b1-6)]Gal(b1-4)Glc
How it was run: as §1

[21] = target: Fuc(a1-2)Gal(b1-3)[Fuc(a1-4)]GlcNAc(b1-3)[Gal(b1-4)GlcNAc(b1-6)]Gal(b1-4)Glc
How it was run: as §1

[22] = target: Fuc(a1-2)Gal(b1-4)Fuc(a1-3)]GlcNAc(b1-2)Man(a1-3)[Fuc(a1-2)Gal(b1-4)[Fuc(a1-3)]GlcNAc(b1-2)Man(a1-6)]Man(b1-4)GlcNAc(b1-4)GlcNAc
How it was run: as §1

[23] = target: Fuc(a1-2)Gal(b1-4)Glc
How it was run: as §1

[24] = target: Fuc(a1-2)Gal(b1-4)Glc6S
How it was run: as §1

[25] = target: Fuc(a1-2)Gal(b1-4)GlcNAc
How it was run: as §1

[26] = target: Fuc(a1-2)Gal(b1-4)GlcNAc(b1-2)Man
How it was run: as §1

[27] = target: Fuc(a1-2)Gal(b1-4)GlcNAc(b1-2)Man(a1-3)[Fuc(a1-2)Gal(b1-4)GlcNAc(b1-2)Man(a1-6)]Man(b1-4)GlcNAc(b1-4)GlcNAc
How it was run: as §1

[28] = target: Fuc(a1-2)Gal(b1-4)GlcNAc(b1-2)Man(a1-3)[Fuc(a1-2)Gal(b1-4)GlcNAc(b1-2)Man(a1-6)]Man(b1-4)GlcNAc(b1-4)[Fuc(a1-6)]GlcNAc
How it was run: as §1

[29] = target: Fuc(a1-2)Gal(b1-4)GlcNAc(b1-2)[Fuc(a1-2)Gal(b1-4)GlcNAc(b1-4)]Man(a1-3)[Fuc(a1-2)Gal(b1-4)GlcNAc(b1-2)Man(a1-6)]Man(b1-4)GlcNAc(b1-4)GlcNAc
How it was run: as §1

[30] = target: Fuc(a1-2)Gal(b1-4)GlcNAc(b1-3)Gal(b1-4)GlcNAc
How it was run: as §1

B1: HBHA-Rv (Mycobacterium tuberculosum), P0A5P6 (protein)
chain: MAENSNIDDIKAPLLAALGAADLALATVNELITNLRERAEETRTDTRSRVEESRARLTKLQEDLPEQLTELREKFTAEELRKAAEGYLEAATSRYNELVERGEAALERLRSQQSFEEVSARAEGYVDQAVELTQEALGTVASQTRAVGERAAKLVGIELPKKAAPAKKAAPAKKAAPAKKAAAKKAPAKKAAAKKVTQK
- glycan array binding signal (z-score) [1]: 0.953
- glycan array binding signal (z-score) [2]: 0.448
- glycan array binding signal (z-score) [3]: -0.113
- glycan array binding signal (z-score) [4]: -0.332
- glycan array binding signal (z-score) [5]: -0.092
- glycan array binding signal (z-score) [6]: -0.064
- glycan array binding signal (z-score) [7]: 0.114
- glycan array binding signal (z-score) [8]: 0.221
- glycan array binding signal (z-score) [9]: -0.429
- glycan array binding signal (z-score) [10]: -0.319
- glycan array binding signal (z-score) [11]: 0.242
- glycan array binding signal (z-score) [12]: -0.351
- glycan array binding signal (z-score) [13]: -0.45
- glycan array binding signal (z-score) [14]: -0.453
- glycan array binding signal (z-score) [15]: 0.025
- glycan array binding signal (z-score) [16]: -0.269
- glycan array binding signal (z-score) [17]: -0.401
- glycan array binding signal (z-score) [18]: -0.206
- glycan array binding signal (z-score) [19]: 0.157
- glycan array binding signal (z-score) [20]: -0.277
- glycan array binding signal (z-score) [21]: -0.426
- glycan array binding signal (z-score) [22]: -0.262
- glycan array binding signal (z-score) [23]: -0.208
- glycan array binding signal (z-score) [24]: -0.121
- glycan array binding signal (z-score) [25]: 0.109
- glycan array binding signal (z-score) [26]: -0.196
- glycan array binding signal (z-score) [27]: -0.367
- glycan array binding signal (z-score) [28]: -0.419
- glycan array binding signal (z-score) [29]: -0.447
- glycan array binding signal (z-score) [30]: -0.394
